Measurements as given in the antibiotic and cytotoxicity screens of Wong et al. (2023).
The other results are listed elsewhere or left out.

Experiments:
HSkMC = human skeletal muscle cells; experiment: cytotoxicity call (relative viability < 0.9); details: 10 µM
S. aureus RN4220 = experiment: growth inhibition call (relative growth <= 0.2); details: 50 µM

SMILES	cytotoxicity call (HSkMC)	growth inhibition call (S. aureus RN4220)
CN1C[C@@H]2CNC[C@@H]2C1=O	inactive	inactive
COc1ccc2c(c1O)-c1c(OC)c(OC)cc3c1C(C2)N(C)CC3 (stereo unspecified)	inactive	inactive
O=C(O)CCl	inactive	inactive
OCC(Br)(Br)Br	inactive	inactive
O=C(NC(=O)c1c(F)cccc1F)Nc1cc(Cl)c(OC(F)(F)[C@@H](F)C(F)(F)F)cc1Cl	active	inactive
NCC(=O)c1ccccc1	inactive	inactive
N=C(N)N/N=C/c1ccc2c(c1)OCO2	inactive	inactive
CCN1C[C@]23CNC[C@@H](C[C@H]2S1(=O)=O)O3	inactive	inactive
C[C@@H]1CN([C@@H](C)CO)C(=O)CCCn2cc(nn2)CO[C@H]1CN(C)C(=O)Oc1cccc2ccccc12	inactive	inactive
CC(C)(C)[C@@]1(O)C[C@H]2OC(=O)C[C@]23C(=O)O[C@H]2OC(=O)[C@@H](O)[C@]231	inactive	inactive
OC[C@H]1O[C@@H](Oc2ccc(/C=C/c3cc(O)cc(O)c3)cc2O)[C@H](O)[C@@H](O)[C@@H]1O	inactive	inactive
CCN1CCN(c2nc(=O)cc(C)[nH]2)CC1	inactive	inactive
CCC(c1cccc(O)c1)C(C)CN(C)C.Cl (stereo unspecified)	inactive	inactive
COC(=O)C[C@@H]1CC[C@H]2NC[C@H](O)COC[C@@H]2O1	inactive	inactive
CC1CCC2(NC1)OC1CC3C4CCC5CC(O)CCC5(C)C4CCC3(C)C1C2C.Cl (stereo unspecified)	inactive	inactive
Cc1cc(C2=NO[C@](c3cc(Cl)cc(Cl)c3)(C(F)(F)F)C2)ccc1C(=O)NCC(=O)NCC(F)(F)F	active	inactive
CNCC(=O)c1ccc(O)c(O)c1	inactive	inactive
CN1CCN([C@@H](CN)c2ccc3c(c2)OCO3)CC1	inactive	inactive
CC(N)C(O)c1ccccc1.Cl (stereo unspecified)	inactive	inactive
O=[N+]([O-])OC1COC2C(O[N+](=O)[O-])COC12 (stereo unspecified)	inactive	inactive
C=C[C@H]1CN2CC[C@@H]1C[C@@H]2CO	inactive	inactive
COC(=O)[C@H]1CNCCN1c1ccccc1	inactive	inactive

SMILES	cytotoxicity call (HSkMC)	growth inhibition call (S. aureus RN4220)
CO[C@H]1[C@H](O)[C@@H](O[C@H]2[C@@H](C)O[C@@H](O[C@H]3[C@H](C)O[C@H](O[C@H]4CC[C@@]5(C)[C@@H](CC[C@@]6(O)[C@@H]5C[C@@H](O)[C@]5(C)[C@]6(O)CC[C@@]5(O)[C@@H](C)O)C4)C[C@@H]3OC)C[C@H]2OC)O[C@@H](C)[C@H]1O	inactive	inactive
NC1(c2cccc(Cl)c2)CC1	inactive	inactive
CNC1C(O)C(OC2C(N)CC(N)C(OC3OC(C(C)O)C(O)C(O)C3N)C2O)OCC1(C)O (stereo unspecified)	inactive	active
O=C(O)[C@H]1N[C@H]2CC[C@@H]1C2	inactive	inactive
CN1CCN(c2nc(=O)c3c([nH]2)CCCC3)CC1	inactive	inactive
CC(=O)OC1CC(OC(C)=O)C2(C)C(CC(OC(C)=O)C3(C)C2CCC2(C)C(c4ccoc4)C(=O)C4OC423)C1(C)C (stereo unspecified)	inactive	inactive
OCC(O)C1OC2OC(C(Cl)(Cl)Cl)OC2C1O (stereo unspecified)	inactive	inactive
C=CCN1CCC23c4c5ccc(O)c4OC2C(=O)CCC3(O)C1C5.Cl (stereo unspecified)	inactive	inactive
NCC[C@H](NC(=O)[C@@H](N)CCCNC(N)=N[N+](=O)[O-])C(N)=O.O=CC(F)(F)F	inactive	inactive
CNCC(=O)c1ccc(O)cc1	inactive	inactive
C[C@H]1O[C@H](n2cnc3c(N)ncnc32)C[C@H]1O	inactive	inactive
CN1C[C@H]2CON[C@@H]2C1	inactive	inactive
C[C@@H]1CN([C@@H](C)CO)C(=O)CCCn2nncc2CO[C@H]1CN(C)C(=O)Oc1ccc2ccccc2c1	inactive	inactive
O[C@H]1[C@H](O)[C@@H](O)CN2CC[C@H](O)[C@H]12	inactive	inactive
C[As](C)SC[C@H](NC(=O)CC[C@H](N)C(=O)O)C(=O)NCC(=O)O	inactive	inactive
CO[C@@H]1C=C[C@@H]2[C@H]1N2CCO (stereo partly specified)	inactive	inactive
c1cnc2[nH]cc(CN3CCNCC3)c2c1	inactive	inactive
[NH2][Pt]1([NH2])[O]C(=O)C2(CCC2)C(=O)[O]1	inactive	inactive
N#[N+]CC(=O)OC[C@H](N)C(=O)O	inactive	inactive
OCC(CO)N1CCC2(CCNCC2)CC1	inactive	inactive
C[N+](C)(C)CCCl	inactive	inactive
